From PubChem BioAssay AID686978 (National Center for Advancing Translational Sciences (NCATS), 2013)
Values joined by “and” are separate entries in the source; they are usually repeats but may differ in a detail not shown here. Equal entries are not always repeated. The whole screen tested about 420,000 compounds, of which about 64,000 (15%) were called active. This list was built around the results that the source calls inconclusive (neither active nor inactive); the mix of calls is not that of the screen. Calls follow the shape of the dose curve; as a rule, active = well fitted inhibition curve with a large enough effect; inconclusive = small, poorly fitted or top-dose-only effect; inactive = flat fitted curve, though single readings scatter. A potency beside an inconclusive call is a rough fit, not a confirmed value.
% is scaled to controls: 0 for no effect and ±100 for the full control effect; potency is read from the fitted curve at half-maximal effect; tags tell the direction and shape of the fitted curve.

Assay: qHTS for Inhibitors of human tyrosyl-DNA phosphodiesterase 1 (TDP1): qHTS in cells in absence of CPT; also: nearly all actives have a fitted effect of over 55% in size
Conditions: DT40 Tdp1-/- hTDP1 cells, no CPT, ATP luminescence, 48 h; activity change, negative = growth inhibition: at 46.2 µM (top of the series) unless noted
How it was run: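 Readout: luminescence from CellTiter-Glo after 30 min in the dark at RT. Cells: DT40 Tdp1-/- with stable hTDP1, 400/well. Exposure: compounds alone, ≥48 hr, 37 °C.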
In the case of `CCN(CC)S(=O)(=O)c1cc(C(=O)Nc2ccccc2[N+](=O)[O-])ccc1Cl`, the Potency is reported as active: 16.4 µM. With `CCc1c(C)nc(N2CCN(c3ccc(F)cc3)CC2)[nH]c1=O` the “activity change, negative = growth inhibition” value was inactive: -27.7%. For `CN(C)c1ccc(NC(=S)NC(=O)/C=C/c2ccco2)cc1`, the “activity change, negative = growth inhibition” value was inactive: -23%. With `O=c1c2cc(F)ccc2sn1-c1ccc(F)cc1` the Potency was active: 3.26 µM. For `Cc1cccc(C(=O)OC(C)C(=O)NC2CCCc3ccccc32)c1O` (stereo not given), the activity change, negative = growth inhibition was inconclusive: -30.9% [inhibitor]. For `CC(C)C[C@@H](CO)N1CCN(Cc2ccc(Br)cc2)CCC1=O`, the Potency was inconclusive: 22.4 µM [inhibitor, single point] and inconclusive: 16.4 µM [inhibitor, single point]. With `CCCCC(=O)Nc1cc(N(C)C)nc2ccccc12` the Potency was inconclusive: 25.9 µM [inhibitor, single point]. With `O=C(c1ccc(F)cc1)C(CCCCCC(CN1CCOCC1)C(=O)c1ccc(F)cc1)CN1CCOCC1` (stereo not given) the Potency was active: 18.4 µM. In the case of `CCc1ccc(NC(=O)CN2C(=O)C(c3ccc(C)cc3)=NC23CCCCC3)cc1`, the Potency is reported as inconclusive: 18.4 µM [inhibitor, single point]. With `CCCn1c(N)c(N2CCCCC2)c(=O)n(CC(=O)Nc2ccccc2C)c1=O` the Potency was inconclusive: 6.51 µM [inhibitor, single point]. For `CN(C)C(CNC(=O)c1cc(Br)ccc1Cl)c1ccco1` (stereo not given), the “activity change, negative = growth inhibition” value was inactive: -21.2%. For `Cc1cccc(Cn2cccc2CNS(=O)(=O)c2ccccc2F)c1`, the Potency was inconclusive: 16.4 µM [inhibitor, single point]. For `CCN(CC)CC(=O)Nc1sc2c(c1C(=O)c1ccccc1C)CCC2`, the Potency was inconclusive: 18.4 µM [inhibitor, partial curve]. With `CC(C)Oc1cccc(NC(=O)C2(C)CCN2C(=O)C(C)C)c1` (stereo not given) the “activity change, negative = growth inhibition” value was inactive: -16.4%. With `COc1ccc2sc(N(Cc3cccnc3)C(=O)C3CCCCC3)nc2c1` the Potency was active: 23.1 µM. With `Cc1nonc1OCCNC(=O)C12CC3CC(CC(C3)C1)C2` the “activity change, negative = growth inhibition” value was inactive: -21.3%. With `CCOC(=O)c1cccc(NC(=O)c2cc3ccccn3n2)c1` the Potency was inconclusive: 20.6 µM [inhibitor, single point]. With `O=C(NC1CCCCCC1)c1cc2c(=O)n3ccccc3nc2s1` the Potency was inconclusive: 13 µM [inhibitor, partial curve]. With `CCCCOc1ccc(C(=O)N/C(=C\c2ccc(OC)cc2)C(=O)OCc2ccco2)cc1` the Potency was inconclusive: 29.1 µM [inhibitor, single point]. In the case of `CN(C)c1ccc(CNc2ccc3c(c2)ncn3C)cc1`, the Potency is reported as active: 23.1 µM. With `CCCCOc1ccc(C2=NC(c3ccncc3)=Nc3ccc(OCC)cc3N2)cc1` the Potency was inconclusive: 25.9 µM [inhibitor, single point]. In the case of `Cc1cc(C)n(CCCNC(=O)C(C)(C)Oc2ccc(Cl)cc2)n1`, the Potency is reported as inconclusive: 16.4 µM [inhibitor, partial curve, poor fit]. With `C=CCC1S/C(=N/N=C/c2cccs2)NC1=O` (stereo not given) the Potency was inconclusive: 29.1 µM [inhibitor, single point]. For `CCCCNc1cc(C)nc(N2CCOCC2)n1`, the “activity change, negative = growth inhibition” value was inactive: -16.3%. With `COc1cccc(C(C(=O)NC2CCCCC2)N(C(=O)c2csnn2)C2CC2)c1` (stereo not given) the Potency was inconclusive: 18.4 µM [inhibitor, single point]. With `CCc1cc2c(=O)n(CC)c(SC(C)C(=O)Nc3c(C)n(C)n(-c4ccccc4)c3=O)nc2s1` (stereo not given) the Potency was inconclusive: 11.6 µM [inhibitor, partial curve]. For `O=C(NCCc1ccccc1)c1cccnc1N1CCCCCC1`, the Potency was inconclusive: 35.5 µM [inhibitor, single point]. For `CC(C)(C)NC(=O)Nc1ccc(Cn2cc(C(F)(F)F)ccc2=O)cc1`, the Potency was inconclusive: 18.4 µM [inhibitor, single point]. With `CC1(CCc2ccc3c(c2)OCO3)NCCc2c1[nH]c1ccccc21` (stereo not given) the Potency was active: 18.4 µM. For `CCCC(=O)Nc1nc2ccc(NC(=O)c3ccc(Br)o3)cc2s1`, the Potency was active: 23.1 µM. With `CC(=O)c1ccc(Nc2ncnc3ccc(Br)cc23)cc1` the Potency was inconclusive: 4.61 µM [inhibitor, full curve]. For `N#Cc1ccc(CN2CCC3(CC2)CCN(C(=O)c2ccco2)CC3)cc1`, the Potency was inconclusive: 16.4 µM [inhibitor, partial curve, poor fit]. For `CCOc1ccc(C2NC(=O)Cc3cc(OC)c(OC)cc32)cc1` (stereo not given), the “activity change, negative = growth inhibition” value was inactive: -24.7%. With `O=C(Cn1c(C(F)(F)F)nc2ccccc21)OCC(=O)c1c[nH]c2ccccc12` the Potency was inconclusive: 6.51 µM [inhibitor, full curve, poor fit]. In the case of `COc1ccc(N2CCN(/C(=N\S(=O)(=O)c3ccc(C)cc3)Nc3nc(C)cc(C)n3)CC2)cc1`, the Potency is reported as inconclusive: 20.6 µM [inhibitor, single point]. In the case of `CC(=O)Nc1ccc(S(=O)(=O)Oc2cccc(N3C(=O)C4CCCCC4C3=O)c2)cc1` (stereo not given), the Potency is reported as inconclusive: 18.4 µM [inhibitor, single point]. For `Cn1c(=O)c(C(=O)c2ccccc2)nc2ccccc21`, the “activity change, negative = growth inhibition” value was inactive: -14.4%. For `Nc1nc(SCC(=O)Nc2ccc(Cl)cc2)[nH]c(=O)c1-c1ccccc1`, the “activity change, negative = growth inhibition” value was inactive: -10.2%. For `CCOC(=O)C(=O)N(C)c1c(CC)nc2c(OCc3ccc(OC(F)F)cc3)cccn12`, the “activity change, negative = growth inhibition” value was inactive: -46.2%. For `CC(CCc1ccccc1)NC(=O)Cc1ccc([N+](=O)[O-])cc1` (stereo not given), the Potency was inconclusive: 29.1 µM [inhibitor, single point]. With `COc1ccc(NS(=O)(=O)c2ccc(C)c(C(=O)NC3CCN(Cc4ccccc4)CC3)c2)cc1` the Potency was inconclusive: 20.6 µM [inhibitor, partial curve]. In the case of `Oc1ccc(Cl)cc1CNCC1CCCO1` (stereo not given), the activity change, negative = growth inhibition is reported as inconclusive: -30.8% [inhibitor]. With `COc1ccccc1N1CCN(C(=O)CSc2nnc(-c3ccoc3C)o2)CC1` the Potency was inconclusive: 11.6 µM [inhibitor, partial curve]. In the case of `Cc1ccc(N=Cc2ccc[nH]2)c(O)c1`, the Potency is reported as inconclusive: 29.1 µM [inhibitor, single point]. With `COc1ccc(NC(=O)N(CCO)Cc2cc3c(C)cc(C)cc3[nH]c2=O)cc1` the “activity change, negative = growth inhibition” value was inactive: -29.3%. For `Cc1ccc(Cn2c(=O)c3ccccc3n3c(-c4cccc(O)c4)nnc23)cc1`, the Potency was inconclusive: 29.1 µM [inhibitor, single point]. With `COC(=O)C1=C(C(=O)OC)[C@@H]2N(Cc3ccccc3)c3ccccc3[C@@]23C[C@@H](C(=O)OC)N(C(=O)NC(C)(C)C)C3=N1` the “activity change, negative = growth inhibition” value was inactive: -18.9%. With `CCCc1[nH]n(-c2nc3ccccc3s2)c(=O)c1C=NCCCN(CC)CC` the “activity change, negative = growth inhibition” value was inactive: 1.64%. In the case of `COc1ccc(/C=N\NC(=O)c2cc(O)c(O)c(O)c2)cc1COc1ccc(C(=O)OCC(C)C)cc1`, the Potency is reported as active: 20.6 µM. In the case of `COc1ccc(C(C(=O)NC2CCCC2)N(C(=O)CNC(=O)c2ccco2)c2cccnc2)cc1` (stereo not given), the “activity change, negative = growth inhibition” value is reported as inactive: 4.67%. With `CCOc1ccc(C2CC(c3c(O)n(C4CCCCC4)c(=O)[nH]c3=O)=Nc3ccccc3S2)cc1` (stereo not given) the “activity change, negative = growth inhibition” value was inactive: 1.15%. For `CCC[C@H]1CN(c2ccc(Br)cc2)C(=O)[C@@H]1CC(=O)NC`, the Potency was inconclusive: 23.1 µM [inhibitor, single point]. In the case of `Cc1cccc(NC(=O)Nc2nnc(N3CCCCC3C)s2)c1C` (stereo not given), the Potency is reported as inconclusive: 29.1 µM [inhibitor, single point]. For `Cc1ccc2nc(COc3ccccc3NC(=O)C(C)(C)C)cc(=O)n2c1`, the Potency was inconclusive: 18.4 µM [inhibitor, single point]. With `O=C(Nc1sc2c(c1C(=O)NCc1cccnc1)CCCC2)c1cc(=O)c2ccccc2o1` the Potency was inconclusive: 0.0073 µM [inhibitor, full curve, poor fit]. For `C=CCNC(=S)N1CCN(CCN=Cc2c(C)[nH]n(-c3ccc([N+](=O)[O-])cc3)c2=O)CC1`, the Potency was inconclusive: 11.6 µM [inhibitor, partial curve]. For `Cc1ccc(CCNC(=O)c2cc3c(s2)-c2c(C)cccc2OC3)cc1`, the Potency was inconclusive: 29.1 µM [inhibitor, single point]. For `COc1cc2c(cc1OC)C(C(=O)N1CCN(c3ccccn3)CC1)C(c1cccs1)N(C)C2=O` (stereo not given), the activity change, negative = growth inhibition was inconclusive: -33.1% [inhibitor]. For `COc1cccc(CNC(=O)c2ccc(-c3nc(COc4ccccc4)c(C)o3)cc2)c1`, the Potency was active: 9.2 µM. With `CCOC(=O)c1sc2nc(C)nc(N3CCCCC3C)c2c1C` (stereo not given) the Potency was inconclusive: 18.4 µM [inhibitor, single point]. With `OC(CNCCc1ccc(Cl)cc1)COc1ccc2ccccc2c1` (stereo not given) the Potency was inconclusive: 14.6 µM [inhibitor, single point]. With `CC(C)Cn1c(C(C)NC(=O)Cc2ccccc2)nc2ccccc21` (stereo not given) the Potency was active: 6.51 µM. With `CCOC(=O)N1CCc2c(sc3c2c(=O)n(-c2ccccc2C(F)(F)F)c(=O)n3Cc2ccccc2C)C1` the Potency was inconclusive: 23.1 µM [inhibitor, single point]. For `CCO[C@H]1OC(C(=O)N2CCCCCCC2)=C[C@@H](c2ccccc2)[C@@H]1CCCO`, the Potency was inconclusive: 29.1 µM [inhibitor, single point]. For `Cc1cccc(NC(=O)NCC(c2ccco2)N2CCCCC2)c1` (stereo not given), the “activity change, negative = growth inhibition” value was inactive: -12.7%. With `COC(=O)NC(=C(Cl)Cl)S(=O)(=O)c1ccccc1` the Potency was active: 10.3 µM. In the case of `Cc1ccc(NS(=O)(=O)c2ccc(-n3cccn3)cc2)cc1Cl`, the Potency is reported as inconclusive: 23.1 µM [inhibitor, single point] and inconclusive: 7.31 µM [inhibitor, partial curve]. With `O=C(Cc1ccc(F)cc1)NCc1ccc2c(c1)CCN2C(=O)c1ccc(F)cc1` the Potency was active: 9.2 µM. In the case of `O=C(CN1CCN(C/C=C/c2ccccc2)CC1)NCc1ccc(Cl)cc1`, the Potency is reported as active: 4.61 µM. For `Cc1ccc(Cl)cc1N=C(N)N=C(N)N`, the Potency was inconclusive: 29.1 µM [inhibitor, single point].
